Measured values reported in the supplement of paper PMC8728848.
This is one part of the list.

Legend:
Experiment in all cases: glycan array binding signal (z-score within array); higher = stronger binding
Conditions in all cases: glycan notation: IUPAC condensed, linker removed
Gal(b1-4)Glc = biological target: Gal(b1-4)Glc
Summary of the method: (§1)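 Columns mapping to the same glycan were averaged after glycan names were converted to IUPAC-condensed notation. The data come from 3228 arrays in the Consortium for Functional Glycomics database, limited to those with an available protein sequence. Binding is reported as a within-array Z-score averaged across arrays of one protein sequence and across linkers.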

Gal(b1-4)Glc6S = biological target: Gal(b1-4)Glc6S
Summary of the method: as §1

Gal(b1-4)GlcNAc = biological target: Gal(b1-4)GlcNAc
Summary of the method: as §1

[1] = biological target: Gal(b1-4)GlcNAc(a1-6)Gal(b1-4)GlcNAc
Summary of the method: as §1

Gal(b1-4)GlcNAc(b1-2)Man = biological target: Gal(b1-4)GlcNAc(b1-2)Man
Summary of the method: as §1

[2] = biological target: Gal(b1-4)GlcNAc(b1-2)Man(a1-3)Man(b1-4)GlcNAc(b1-4)GlcNAc
Summary of the method: as §1

[3] = biological target: Gal(b1-4)GlcNAc(b1-2)Man(a1-3)[Gal(b1-4)GlcNAc(b1-2)Man(a1-6)]Man(b1-4)GlcNAc(b1-4)GlcNAc
Summary of the method: as §1

[4] = biological target: Gal(b1-4)GlcNAc(b1-2)Man(a1-3)[Gal(b1-4)GlcNAc(b1-2)Man(a1-6)]Man(b1-4)GlcNAc(b1-4)[Fuc(a1-6)]GlcNAc
Summary of the method: as §1

[5] = biological target: Gal(b1-4)GlcNAc(b1-2)Man(a1-3)[Gal(b1-4)GlcNAc(b1-2)Man(a1-6)][Gal(b1-4)GlcNAc(b1-4)]Man(b1-4)GlcNAc(b1-4)[Fuc(a1-6)]GlcNAc
Summary of the method: as §1

[6] = biological target: Gal(b1-4)GlcNAc(b1-2)Man(a1-3)[Gal(b1-4)GlcNAc(b1-2)Man(a1-6)][GlcNAc(b1-4)]Man(b1-4)GlcNAc(b1-4)[Fuc(a1-6)]GlcNAc
Summary of the method: as §1

[7] = biological target: Gal(b1-4)GlcNAc(b1-2)Man(a1-3)[GlcNAc(b1-2)Man(a1-6)]Man(b1-4)GlcNAc(b1-4)GlcNAc
Summary of the method: as §1

[8] = biological target: Gal(b1-4)GlcNAc(b1-2)Man(a1-3)[GlcNAc(b1-4)][Gal(b1-4)GlcNAc(b1-2)Man(a1-6)]Man(b1-4)GlcNAc(b1-4)GlcNAc
Summary of the method: as §1

[9] = biological target: Gal(b1-4)GlcNAc(b1-2)Man(a1-3)[Man(a1-6)]Man(b1-4)GlcNAc(b1-4)GlcNAc
Summary of the method: as §1

[10] = biological target: Gal(b1-4)GlcNAc(b1-2)Man(a1-6)Man(b1-4)GlcNAc(b1-4)GlcNAc
Summary of the method: as §1

[11] = biological target: Gal(b1-4)GlcNAc(b1-2)Man(a1-6)[GlcNAc(b1-2)Man(a1-3)]Man(b1-4)GlcNAc(b1-4)GlcNAc
Summary of the method: as §1

[12] = biological target: Gal(b1-4)GlcNAc(b1-2)Man(a1-6)[Man(a1-3)]Man(b1-4)GlcNAc(b1-4)GlcNAc
Summary of the method: as §1

[13] = biological target: Gal(b1-4)GlcNAc(b1-2)[Gal(b1-4)GlcNAc(b1-4)]Man(a1-3)[Gal(b1-4)GlcNAc(b1-2)Man(a1-6)]Man(b1-4)GlcNAc(b1-4)GlcNAc
Summary of the method: as §1

[14] = biological target: Gal(b1-4)GlcNAc(b1-2)[Gal(b1-4)GlcNAc(b1-4)]Man(a1-3)[Gal(b1-4)GlcNAc(b1-2)[Gal(b1-4)GlcNAc(b1-6)]Man(a1-6)]Man(b1-4)GlcNAc(b1-4)GlcNAc
Summary of the method: as §1

[15] = biological target: Gal(b1-4)GlcNAc(b1-2)[Gal(b1-4)GlcNAc(b1-4)]Man(a1-3)[GlcNAc(b1-4)][Gal(b1-4)GlcNAc(b1-2)Man(a1-6)]Man(b1-4)GlcNAc(b1-4)GlcNAc
Summary of the method: as §1

[16] = biological target: Gal(b1-4)GlcNAc(b1-2)[Gal(b1-4)GlcNAc(b1-4)]Man(a1-3)[GlcNAc(b1-4)][Gal(b1-4)GlcNAc(b1-2)[Gal(b1-4)GlcNAc(b1-6)]Man(a1-6)]Man(b1-4)GlcNAc(b1-4)GlcNAc
Summary of the method: as §1

[17] = biological target: Gal(b1-4)GlcNAc(b1-2)[Gal(b1-4)GlcNAc(b1-6)]Man(a1-6)[Gal(b1-4)GlcNAc(b1-2)Man(a1-3)]Man(b1-4)GlcNAc(b1-4)GlcNAc
Summary of the method: as §1

[18] = biological target: Gal(b1-4)GlcNAc(b1-2)[Gal(b1-4)GlcNAc(b1-6)]Man(a1-6)[Gal(b1-4)GlcNAc(b1-2)Man(a1-3)]Man(b1-4)GlcNAc(b1-4)[Fuc(a1-6)]GlcNAc
Summary of the method: as §1

[19] = biological target: Gal(b1-4)GlcNAc(b1-2)[Gal(b1-4)GlcNAc(b1-6)]Man(a1-6)[GlcNAc(b1-4)][Gal(b1-4)GlcNAc(b1-2)Man(a1-3)]Man(b1-4)GlcNAc(b1-4)GlcNAc
Summary of the method: as §1

[20] = biological target: Gal(b1-4)GlcNAc(b1-2)[Gal(b1-4)GlcNAc(b1-6)]Man(a1-6)[GlcNAc(b1-4)][Gal(b1-4)GlcNAc(b1-2)[Gal(b1-4)GlcNAc(b1-4)]Man(a1-3)]Man(b1-4)GlcNAc(b1-4)[Fuc(a1-6)]GlcNAc
Summary of the method: as §1

[21] = biological target: Gal(b1-4)GlcNAc(b1-3)Gal(b1-3)GalNAc
Summary of the method: as §1

[22] = biological target: Gal(b1-4)GlcNAc(b1-3)Gal(b1-3)GlcNAc
Summary of the method: as §1

[23] = biological target: Gal(b1-4)GlcNAc(b1-3)Gal(b1-4)Glc
Summary of the method: as §1

[24] = biological target: Gal(b1-4)GlcNAc(b1-3)Gal(b1-4)GlcNAc
Summary of the method: as §1

[25] = biological target: Gal(b1-4)GlcNAc(b1-3)Gal(b1-4)GlcNAc(b1-2)Man(a1-3)[Gal(b1-4)GlcNAc(b1-3)Gal(b1-4)GlcNAc(b1-2)Man(a1-6)]Man(b1-4)GlcNAc(b1-4)GlcNAc
Summary of the method: as §1

[26] = biological target: Gal(b1-4)GlcNAc(b1-3)Gal(b1-4)GlcNAc(b1-2)Man(a1-3)[Gal(b1-4)GlcNAc(b1-3)Gal(b1-4)GlcNAc(b1-2)Man(a1-6)]Man(b1-4)GlcNAc(b1-4)[Fuc(a1-6)]GlcNAc
Summary of the method: as §1

B1: Pa IMPa (Pseudomonas aeruginosa), Q9I5W4 (protein)
chain: MSLSTTAFPSLQGENMSRSPIPRHRALLAGFCLAGALSAQAATQEEILDAALVSGDSSQLTDSHLVALRLQQQVERIRQTRTQLLDGLYQNLSQAYDPGAASMWVLPANPDNTLPFLIGDKGRVLASLSLEAGGRGLAYGTNVLTQLSGTNAAHAPLLKRAVQWLVNGDPGAATAKDFKVSVVGVDKTAALNGLKSAGLQPADAACNALTDASCASTSKLLVLGNGASAASLSATVRARLQAGLPILFVHTNGWNQSSTGQQILAGLGLQEGPYGGNYWDKDRVPSSRTRTRSVELGGAYGQDPALVQQIVDGSWRTDYDWSKCTSYVGRTTCDDVPGLSDFSKRVDVLKGALDAYNQKAQNLFALPGTTSLRLWLLWADAVRQNIRYPMDKAADTARFQETFVADAIVGYVREAGAAQKELGSYAGQRQQSMPVSGSEETLTLTLPSAQGFTAIGRMAAPGKRLSIRIEDAGQASLAVGLNTQRIGSTRLWNTRQYDRPRFLKSPDIKLQANQSVALVSPYGGLLQLVYSGATPGQTVTVKVTGAASQPFLDIQPGEDSSQAIADFIQALDADKADWLEIRSGSVEVHAKVEKVRGSIDKDYGGDVQRFIRELNEVFIDDAYTLAGFAIPNQAKTPAIQQECAARGWDCDSETLHKLPGTQHINVDQYAQCGGGCSGNPYDQTWGLNPRGWGESHELGHNLQVNRLKVYGGRSGEISNQIFPLHKDWRVLREFGQNLDDTRVNYRNAYNLIVAGRAEADPLAGVYKRLWEDPGTYALNGERMAFYTQWVHYWADLKNDPLQGWDIWTLLYLHQRQVDKSDWDANKAALGYGTYAQRPGNSGDASSTDGNDNLLLGLSWLTQRDQRPTFALWGIRTSAAAQAQVAAYGFAEQPAFFYANNRTNEYSTVKLLDMSQGSPAWPFP
B1 was tested, and the “glycan array binding signal (z-score)” value (Gal(b1-4)Glc) was -0.44, the “glycan array binding signal (z-score)” value (Gal(b1-4)Glc6S) was -0.27 and the “glycan array binding signal (z-score)” value (Gal(b1-4)GlcNAc) was -0.098. The “glycan array binding signal (z-score)” value [1] was -0.184, the “glycan array binding signal (z-score)” value (Gal(b1-4)GlcNAc(b1-2)Man) was -0.211 and the “glycan array binding signal (z-score)” value [2] was 1.02. The “glycan array binding signal (z-score)” value [3] was 0.332, the “glycan array binding signal (z-score)” value [4] was -0.396 and the “glycan array binding signal (z-score)” value [5] was -0.351. The “glycan array binding signal (z-score)” value [6] was -0.448, the “glycan array binding signal (z-score)” value [7] was 0.101 and the “glycan array binding signal (z-score)” value [8] was 0.105. For the same binder, the “glycan array binding signal (z-score)” value [9] was 0.302, the “glycan array binding signal (z-score)” value [10] was 0.603 and the “glycan array binding signal (z-score)” value [11] was -0.516. The “glycan array binding signal (z-score)” value [12] was -0.177, the “glycan array binding signal (z-score)” value [13] was -0.42 and the “glycan array binding signal (z-score)” value [14] was -0.409. The “glycan array binding signal (z-score)” value [15] was -0.066, the “glycan array binding signal (z-score)” value [16] was -0.134 and the “glycan array binding signal (z-score)” value [17] was -0.133. For the same binder, the “glycan array binding signal (z-score)” value [18] was -0.317, the “glycan array binding signal (z-score)” value [19] was 0.232 and the “glycan array binding signal (z-score)” value [20] was 0.256. For the same binder, the “glycan array binding signal (z-score)” value [21] was -0.43, the “glycan array binding signal (z-score)” value [22] was 0.118 and the “glycan array binding signal (z-score)” value [23] was -0.197. For the same binder, the “glycan array binding signal (z-score)” value [24] was -0.509, the “glycan array binding signal (z-score)” value [25] was -0.152 and the “glycan array binding signal (z-score)” value [26] was 0.449.
